Data from ChEMBL document CHEMBL4888484, “Replenishing the malaria drug discovery pipeline: Screening and hit evaluation of the MMV Hit Generation Library 1 (HGL1) against asexual blood stage Plasmodium falciparum ,using a nano luciferase reporter read-out” (2022).
Among all 150,000 compounds or so, about 540 (0.36%) showed an effect of 50% or more. The list shows a part of the results.

tested on: Plasmodium falciparum; assay: Primary screen in NF54 nanoGlo assay, in single point, at 2uM, 72h; a lower Z score goes with more inhibition; format: functional, Erythrocyte; settings: timepoint 72 hour

Structure (SMILES)	% Inhibition [%]	Z score
Cc1ccn(CC(=O)NCC2(N3CCOCC3)CCCCC2)c(=O)c1C#N	-6	1.23
Cc1c(C(=O)N2CCCCC2)c(C(F)(F)F)nn1[C@H]1CCCN(C)C1	4	-0.54
NC[C@@H](C(=O)Nc1ccc2[nH]ncc2c1)c1ccccc1	-1	0.14
Cn1nc2nc(N3CCN(Cc4ccc(F)cc4)CC3)nc(-c3ccccc3F)c2c1N	-8	0.76
Cc1cc(C(C)C)nc(NCc2nccn2C(F)F)n1	-10	1.17
Cc1nc(C)n(CC(=O)N2CCC[C@H](C(=O)c3ccc(C(F)(F)F)cc3)C2)n1	-3	0.59
CC(=O)NCCn1ccnc1-c1cc2ccccc2s1	-5	0.85
CN(Cc1nccs1)C(=O)[C@H]1CCOc2ccccc2C1	-12	2
Cc1n[nH]c(C)c1S(=O)(=O)NC(C)(C)C	0	0.01
CC(C)(c1ccccc1)c1ccc2cc(O)cc(N3CCCCC3)c2c1	3	-0.42
CCc1cccc(NC(=O)Cn2c(=O)n(Cc3ccc(C)cc3)c(=O)c3nn(CC)cc32)c1	-2	0.24
COc1ccnc(NC(=O)CCC(C)C)c1	-16	2.23
CC[C@H]1CN(Cc2cc(C#N)n(C)c2C)CCN1C(C)C	-13	2.27
Cc1c(C(=O)NC[C@](C)(O)c2ccc(F)cc2F)cnn1C	33	-4.48
CC(C)(C)c1nnc2ccc(N[C@H]3C[C@@](C)(O)C3)nn12	-4	0.62
COc1ccc(NC(=O)Nc2ccc3c(c2)C(N2CCOCC2)=Nc2ccccc2O3)cc1	6	-1.09
CC(C)NC(=O)[C@@H]1COC2(CCN(C(=O)c3cccs3)CC2)N1C(=O)c1ccc(F)cc1	1	-0.17
CCc1c(C(=O)N2CCC(C(=O)O)(n3cccn3)CC2)csc1C	-7	1.25
CC(C)[C@H](C)N1Cc2cccc(NCc3nnc(C(C)(C)C)o3)c2C1	8	-1.05
CC(C)(C)C(=O)NCCCC(=O)NC1CCCC1	-9	1.86
CCOC(=O)N1CCC(NC(=O)c2cc(-c3cccc(OC)c3)nn2C)CC1	6	-0.88
CCN(C(=O)C1CCCN(C(=O)NC2CCCC2)C1)C1CC(=O)NC1=O (stereo not given)	-4	0.67

Structure (SMILES)	% Inhibition [%]	Z score
Cc1ncsc1[C@@H]1CC(=O)Nc2nc(N3CCC(C)CC3)nc(O)c21	37	-5.33
COCCN(CCOC)C[C@H](O)Cn1c(-c2ccccc2)c(-c2ccccc2)c2cc(C)ccc21	0	0.06
CCN1CCCN(C(=O)c2ccc(C(=O)N3CCOCC3)cc2)CC1	-2	0.33
COc1ccc2c(c1)C(N1CCCN(C(=O)Nc3ccc(C(C)C)cc3)CC1)=Nc1cc(C(F)(F)F)ccc1O2	-1	0.08
CCc1ccc(-c2cn3c(-c4ccccc4)c(-c4ccccc4)nc3[nH]2)cc1	-7	0.75
CCC[C@]1(CO)CCCN1C(=O)c1ccc(=O)[nH]n1	3	-0.23
CC(C)Cc1nc(CN2C(=O)OC[C@@H]2c2ccccc2)no1	-5	0.88
CC(=O)Nc1ccc(C(=O)N2CCC[C@](C)(F)C2)nc1	-4	0.59
O=C1Nc2ccccc2O[C@H]2C[C@@H]1N(Cc1ccc3c(c1)OCO3)C2	13	-1.48
CCOc1ccc(C(=O)N2CCN(c3cc(C)n4cnnc4n3)CC2)cc1	-6	0.81
Cc1csc(C(=O)N2CCC3(CCCN3C)CC2)c1	-7	0.91
CN(C)c1noc(-c2ccc3c(c2)CCCCC3=O)n1	-10	0.82
CC1CCCC(C)N1C(=O)N(C)Cc1ccccc1N (stereo not given)	6	-0.62
O=C(Cc1cnn(-c2ccccc2)c1)Nc1ncnc2ccsc12	4	-0.76
C[C@@H](CCC(=O)O)NC(=O)c1cc(Br)ccc1F	-6	0.58
CN(CCC1CCOCC1)C(=O)Nc1ccc(F)cn1	-8	1.13
CC(C)CCNC(=O)Cc1cn(C)c2ncccc12	-9	1.1
Cc1nn(-c2ccc(C#N)cc2)c(NC(=O)NCc2ccccn2)c1C	-7	1.44
O=C(N[C@@H]1CCCOC1)N1CC(F)C1	-5	0.69
CS(=O)(=O)NCc1nc(C(F)(F)F)cs1	-3	0.4
Cc1ccc(NC(=O)N2CC(c3nc(C(C)C)nn3C)C2)cc1	28	-3.83
COc1ccc(C)cc1S(=O)(=O)N1CC(N2C(=O)C3CC=CCC3C2=O)C1 (stereo not given)	-3	0.47

Structure (SMILES)	% Inhibition [%]	Z score
Cc1cccc(C)c1NCC(=O)Nc1ncc(Cc2ccc(Br)cc2)s1	33	-3.71
CC(C)c1noc(CCCN=C(N)N2CCOCC2)n1	-14	1.98
Fc1ccc(N2CCN(c3ncnc4c3cnn4NCc3ccc(Cl)cc3Cl)CC2)cc1	26	-2.99
CC1CCC(CCC(=O)NC(C#N)c2c(F)cccc2Cl)O1 (stereo not given)	-7	1.03
Cc1nc([C@H](C)NC(=O)C2CC=CC2)cs1	-2	0.4
CCNc1nc(C(=O)N2CC[C@@H]3CCCC[C@@H]32)cs1	-4	0.6
COC(=O)C1=C(C(=O)OC)SC(=C2C(=S)C(C)(C)Nc3c(C)cc(C)cc32)S1	-5	0.57
CCn1cc(CN2CC[C@H](CNC(=O)c3cccc(O)c3)C2)c(C)n1	-19	1.9
CC(C)OCCCNS(=O)(=O)CCNC(=O)c1ccccc1	-17	2.15
CCOC(=O)N[C@@]1(C(F)(F)F)N=C(c2ccccc2)N(Cc2ccncc2)C1=O	1	-0.14
Cn1ccnc1[C@@H](O)CNc1nccc(-c2ncnn2C)n1	-10	1.27
COc1ccc(-c2c(C)c(-c3nnc(C)o3)nn2-c2ccc(C(=O)NC(C(C)C)C(C)C)cc2)cc1	5	-0.93
O=C(NCC1CCC2(CC1)OCCO2)N1CCCCCC1	1	-0.14
NC(=O)C1CCN(C(=O)Nc2nc(C(F)(F)F)cs2)CC1	36	-4.88
CN1CCCCC[C@H](O)c2cc(C(=O)N3CCN(c4ncccn4)CC3)ccc21	-2	0.19
COc1ccc(-c2noc([C@@H]3CCCN3C(=O)NC3CCCC3)n2)cc1	0	-0.01
CC(C)NC(=O)c1ccc(-c2ccc(C(=O)NCCCc3ccco3)cc2)o1	-13	2.04
Cc1nccn1CCCN(C)Cc1ccccn1	-11	1.55
CCC(=O)N1CCN(c2cc(N3CCCC3)ncn2)CC1	-13	1.43
Cc1n[nH]c(C)c1CNC(=O)c1cn2c(n1)C(=O)N(C)CC2	-10	1.33
Cc1nn(C)cc1CNC(=O)C(=O)Nc1cccc2nonc12	-5	0.89
Cc1nnsc1C(=O)N[C@@H](C)Cc1csc2ccccc12	0	-0.03

Structure (SMILES)	% Inhibition [%]	Z score
Cc1noc2ncnc(N3CCCC3CC(O)c3cnn(C)c3)c12 (stereo not given)	4	-0.69
Cc1ccc(NCCCNC(=O)CN2CCC[C@H](O)C2)nc1	-2	0.37
Cc1ccc(C)c(C(=O)N2CC3CC2CO3)c1 (stereo not given)	-13	1.5
Cc1ccc(N[C@H]2CS(=O)(=O)C[C@H]2O)cc1	3	-0.4
C[C@@H](C(=O)N1CCN(c2nncc3ccccc23)CC1)n1cccn1	-14	1.64
CC(C)c1nccc(C(=O)NC[C@@H](CO)Cc2ccco2)n1	-11	1.42
CNC(=O)[C@H]1CN(C(=O)c2ccc(C)c(F)c2)CC12CCCC2	-1	0.17
CC(C)(CNC(=O)NC[C@]1(O)CCOC1)Cc1cccc(Cl)c1	-8	1.5
CC(C)c1nc(C2CCN(C(=O)Nc3ccc(C(C)(C)C)nn3)CC2)no1	-6	0.48
CCc1ccc(NC(=O)Cc2c(C)nn(-c3nc(C)cs3)c2O)cc1	-14	1.73
CCOC1CC(NS(=O)(=O)c2ccc(CN(C)C)cc2)C12CCCO2 (stereo not given)	-6	1.04
O=C1c2ccccc2C(=O)N1CCCn1cc(Cl)cn1	-17	1.7
C[C@H]1CNC(=O)N1c1cccc(NC(=O)Cc2c(F)cccc2F)c1	-14	1.46
CC(Cn1cncn1)NC(=O)NC(CO)Cc1c[nH]c2ccccc12 (stereo not given)	2	-0.27
O=C(NC(=O)c1nn(-c2ccccc2)c(-c2ccccc2)c1C(=O)c1ccccc1)Nc1ccccc1	-20	2.33
O=C(CCc1cc(Cl)cs1)NC1(CF)CCOCC1	-5	0.83
CN(c1nc(-c2cccnc2)nc2ccccc12)C1CCCCC1	12	-1.45
CC(C)(C)c1noc(C2(NC(=O)[C@H]3CCC(=O)N3)CCCCC2)n1	-8	1.14
CCC1(CC)CN(C(=O)c2cc(C(C)(C)N)no2)c2ccccc21	1	-0.16
